Source: PubChem BioAssay AID2675 (National Center for Advancing Translational Sciences (NCATS), 2010)
The whole screen tested about 280,000 compounds, of which about 100 (0.036%) were called active. Inconclusive means that the source gave no clear call. Such entries were picked first, then a sample of the others. The call rests on the fitted dose curve; in most records, active means well fitted inhibition curve with a large enough effect in the signal ratio, with a control signal flat (not every such curve was filed as active); inconclusive means small, poorly fitted or top-dose-only effect, or effect the other way, or a change in a side signal; inactive means no such curve, though single readings can be large or run the other way; the % refers to the signal ratio. A potency beside an inconclusive call is a rough fit, not a confirmed value. A note “side channel” means that the fit belongs to a control or component signal, not to the main read-out.

Molecular target: Muscleblind-like protein 1 (Homo sapiens) (UniProt Q9NR56)
Sequence of UniProt Q9NR56 (Q9NR56 whole entry, looked up): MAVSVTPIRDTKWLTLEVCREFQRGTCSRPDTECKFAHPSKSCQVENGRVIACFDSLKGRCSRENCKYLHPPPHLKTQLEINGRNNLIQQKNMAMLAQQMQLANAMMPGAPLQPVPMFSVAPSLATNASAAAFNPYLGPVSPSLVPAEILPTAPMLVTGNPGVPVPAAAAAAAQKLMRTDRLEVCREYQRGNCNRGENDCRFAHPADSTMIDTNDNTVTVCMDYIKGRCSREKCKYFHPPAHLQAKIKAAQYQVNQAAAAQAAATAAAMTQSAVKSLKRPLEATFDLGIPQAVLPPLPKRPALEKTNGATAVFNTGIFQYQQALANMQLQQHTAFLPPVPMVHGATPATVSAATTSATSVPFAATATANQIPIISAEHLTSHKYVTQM
Assay: qHTS Assay for Inhibitors of MBNL1-poly(CUG) RNA binding
Conditions: TR-FRET MBNL1-His/biotin-(CUG)12 binding, 665/545 ratio; activity change, negative = inhibition: at 57.5 µM (top of the series)
Method in brief: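 MBNL1-His + Biotin-(CUG)12, cpd titration 92 nM–58 uM; Tb anti-His Ab 0.055 ng/ul, SA-XL665 5 nM (final); 60 min RT; ratiometric 665/545 nm, Ex 340 nm; normalized to buffer and full-complex controls.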
On the % scale 0 is the no-effect control and ±100 the full control effect; potency means the concentration at half of the fitted maximal effect; tags describe the fitted curve by direction and shape or compound fluorescence and quenching.

| SMILES | Potency | activity change, negative = inhibition |
| --- | --- | --- |
| CCOC(=O)N1CCN(c2c(Nc3ccc4c(c3)OCCO4)c(=O)c2=O)CC1 | inconclusive: 35.5 µM [quencher, side channel, single point] | – |
| COC(=O)c1cc(C(=O)NCCC(C)C)cc([N+](=O)[O-])c1 | inconclusive: 14.1 µM [quencher, side channel, partial curve] | – |
| CNC(=O)c1ccc(Nc2nnc(-c3ccc(C)c(S(N)(=O)=O)c3)c3ccccc23)cc1 | inconclusive: 15.8 µM [quencher, side channel, partial curve] | – |
| CCn1nc(C)c(CNC(=O)CCc2nnc(Cc3c[nH]c4ccccc34)o2)c1C | – | inactive: -7.78% |
| Cc1ccc(C)c(N2CCN(C(=O)c3csc4ccccc34)CC2)c1 | inconclusive: 0.1 µM [fluorescent, side channel, full curve, poor fit] | – |
| Cc1ccc(NC(=O)c2cc(=O)n(Cc3ccccc3)c(=O)[nH]2)cc1C | – | inactive: 0.365% |
| O=C(N/N=C/c1cccnc1)c1ccccc1OCc1ccc(Br)cc1 | inconclusive: 14.1 µM [quencher, side channel, partial curve] | – |
| CCOc1ccc(/C(O)=C2\C(=O)C(=O)N(c3cc(C)on3)C2c2ccccc2OC)cc1 (centres undefined) | inconclusive: 25.1 µM [quencher, side channel, single point] | – |
| N#CCCNc1c(Cl)cc(Cl)cc1C(=O)O | inconclusive: 100 µM [inhibitor, partial curve] | – |
| N=c1c(S(=O)(=O)c2ccc(Cl)cc2)cc2c(=O)n3ccccc3nc2n1Cc1ccco1 | inconclusive: 15.8 µM [quencher, side channel, partial curve] | – |
| Cc1nc(SCc2ccccc2F)c2cnn(-c3ccccc3)c2n1 | inconclusive: 39.8 µM [fluorescent, single point] | – |
| Oc1oc(-c2ccc(Br)cc2)nc1/C=N/c1ccccn1 | inconclusive: 39.8 µM [quencher, side channel, single point] | – |
| CCOc1ccc(/C=C2\SC(=S)NC2=O)cc1OC | inconclusive: 20 µM [quencher, single point] | – |
| CCn1c(/C(C#N)=N/O)nc2ccccc21 | – | inactive: -11.1% |
| Cc1ncc([N+](=O)[O-])n1CCN1C(=O)c2ccccc2C1=O | inconclusive: 14.1 µM [quencher, side channel, partial curve] | – |
| COC(C/C=C/C(=O)COCc1ccccc1)OC | – | inactive: 0.234% |
| Cc1cc(N=Cc2c(O)n(-c3ccc4c(c3)OCO4)c(=O)c3ccccc23)ccn1 | inconclusive: 4.47 µM [quencher, side channel, full curve] | – |
| Cc1cccn2c(=O)c3cc(C#N)c(=O)n(Cc4cccnc4)c3nc12 | inconclusive: 2.82 µM [quencher, side channel, full curve] | – |
| COC(=O)c1sccc1NC(=O)CN(C)NS(=O)(=O)c1ccc([N+](=O)[O-])cc1 | inconclusive: 22.4 µM [quencher, side channel, partial curve] | – |
| CCC(=O)OCCNc1cc(Sc2nc3ccccc3[nH]2)c2nonc2c1[N+](=O)[O-] | inconclusive: 10 µM [quencher, side channel, partial curve] | – |

| SMILES | Potency | activity change, negative = inhibition |
| --- | --- | --- |
| CCn1cc(/C=C/c2cc[n+](C)cc2)c2ccccc21 | inconclusive: 3.16 µM [quencher, partial curve] | – |
| O=[N+]([O-])c1ccc(Sc2cccc3cccnc23)c([N+](=O)[O-])c1 | inconclusive: 3.55 µM [quencher, side channel, partial curve] | – |
| COc1ccc(/C=N/n2c(=O)[nH]c3c([nH]c4ccc(Br)cc43)c2=O)cc1CN1CCOCC1 | inconclusive: 25.1 µM [quencher, single point] | – |
| O=C(NCc1ccco1)c1cc([N+](=O)[O-])cc([N+](=O)[O-])c1 | inconclusive: 10 µM [quencher, side channel, partial curve] | – |
| O=C(COc1ccc(Cl)cc1)Nc1nc(-c2ccc(S(=O)(=O)N3CCOCC3)cc2)cs1 | – | inactive: 440% |
| O=C(CN1CCc2ccccc2C1)Nc1ccccc1C(F)(F)F | – | inactive: 1.15% |
| N#Cc1c(NC(=O)CN2CCOCC2)oc(-c2ccccc2)c1-c1ccccc1 | – | inactive: 7.03% |
| CCOC(=O)c1c(C)nc2c(c1-c1ccc(OC)c(OC)c1)C(=O)c1ccccc1-2 | inconclusive: 2.82 µM [quencher, full curve] | – |
| COc1ccc(S(=O)(=O)NCCc2cn3nc(C)c(C)nc3n2)cc1C | inconclusive: 17.8 µM [quencher, side channel, single point] | – |
| CCn1c(C)nc2cc(C(=O)N/N=C/c3ccc(N4CCOCC4)cc3)ccc21 | inconclusive: 15.8 µM [quencher, side channel, partial curve] | – |
| COC(=O)c1cc(O)cc(OC)c1Oc1cc(C)cc(O)c1C(=O)O | inconclusive: 20 µM [quencher, side channel, single point] | – |
| CNc1nnc(-c2cc3ccccc3oc2=O)s1 | inconclusive: 3.16 µM [quencher, side channel, full curve] | – |
| Cc1ccc(C)c(NC(=O)CSc2nc(N)c(NC(=O)c3cccs3)c(=O)[nH]2)c1 | – | inactive: -19.8% |
| O=C1/C(=C/c2cccs2)CCC/C1=C\c1cccs1 | – | inactive: 7.38% |
| Cc1ccc(C(=O)COC(=O)CCN2C(=O)C3C4CCC(C4)C3C2=O)cc1[N+](=O)[O-] (centres undefined) | inconclusive: 14.1 µM [quencher, side channel, partial curve, poor fit] | – |
| COc1ccc(C(=O)c2sc(Nc3ccccc3)nc2N)cc1OC | inconclusive: 15.8 µM [quencher, partial curve] | – |
| COC(=O)c1ccc2c(c1)C(=O)/C(=C/c1ccc(O)cc1)O2 | inconclusive: 28.2 µM [quencher, side channel, partial curve] | – |
| CCCSc1cc(=O)n(-c2ccc(F)cc2)nc1C(=O)OCC | inconclusive: 10 µM [quencher, side channel, partial curve] | – |
| O=C(c1cc2nc(-c3ccco3)cc(C(F)(F)F)n2n1)N1CCCCCC1 | inconclusive: 17.8 µM [quencher, side channel, partial curve] | – |
| Cc1cccc(-c2nnn(CC/C(N)=N/O)n2)c1 | inconclusive: 0.141 µM [quencher, side channel, full curve, poor fit] | – |

| SMILES | Potency | activity change, negative = inhibition |
| --- | --- | --- |
| O=C(C[n+]1ccc(/C=N/O)cc1)NCc1ccccc1 | inconclusive: 17.8 µM [quencher, side channel, partial curve] | – |
| COc1ccccc1NC(=O)c1cc([N+](=O)[O-])ccc1NCCN1C(=O)CCC1=O | inconclusive: 5.01 µM [quencher, side channel, partial curve] | – |
| CCN(CC(=O)Nc1ccc(NC(C)=O)cc1)C(=O)Cc1ccc(Cl)c(Cl)c1 | inconclusive: 251 µM [inhibitor, partial curve] | – |
| CC(=O)Nc1ccc(/C=N/Nc2nncc3ccccc23)cc1 | inconclusive: 14.1 µM [quencher, side channel, partial curve] | – |
| CC1CCCN(c2ccc3nc4ccccc4c(=O)n3n2)C1 (centres undefined) | inconclusive: 17.8 µM [quencher, partial curve] | – |
| CCCOc1ccc(/C(O)=C2/C(=O)C(=O)N(CCCN3CCOCC3)C2c2ccncc2)cc1 (centres undefined) | inconclusive: 15.8 µM [quencher, side channel, partial curve] | – |
| COc1ccc(C(=O)/C=C/Nc2ccc(S(=O)(=O)Nc3cccc(C(C)=O)c3)cc2)cc1 | inconclusive: 2.24 µM [quencher, side channel, single point] | – |
| O=[N+]([O-])c1ccc(Sc2nccn2Cc2ccccc2)cc1 | inconclusive: 17.8 µM [quencher, side channel, partial curve] | – |
| CC(OC(=O)c1cnc2ccccc2n1)c1ccccc1Cl (centres undefined) | inconclusive: 10 µM [quencher, side channel, partial curve] | – |
| CN(C)/C(CN1CCN(C=O)CC1)=C1\N=C(c2ccccc2)OC1=O | inconclusive: 25.1 µM [quencher, side channel, single point] | – |
| NCCNc1ccc([N+](=O)[O-])cc1 | inconclusive: 20 µM [quencher, side channel, single point] | – |
| CCOC(=O)CNC(=S)N(Cc1ccccc1F)C1CCCCC1 | – | inactive: 5.12% |
| COc1ccc2c(c1)CCc1c(C(=O)NCCN3CCOCC3)noc1-2 | inconclusive: 25.1 µM [quencher, side channel, single point] | – |
| COC(=O)C(NC(=O)c1ccccc1Cl)(Nc1ncc(S(=O)(=O)c2ccc([N+](=O)[O-])cc2)s1)C(F)(F)F (centres undefined) | inconclusive: 25.1 µM [quencher, side channel, partial curve] | – |
| CCOc1ccc(OCCn2nnc3ccccc3c2=O)cc1 | inconclusive: 25.1 µM [quencher, side channel, single point] | – |
| COCCn1c(C)cc(/C=C2/SC(=O)N(CC(=O)N3CCCC3)C2=O)c1C | inconclusive: 3.16 µM [quencher, side channel, full curve, poor fit] | – |
| O=C(O)CC(NC(=O)C1CCCCC1)c1ccc(OC2CCCC2)cc1 (centres undefined) | inconclusive: 100 µM [inhibitor, partial curve] | – |
| O=C(Nc1cccnc1)c1cnc2ccccc2n1 | inconclusive: 5.01 µM [quencher, side channel, partial curve] | – |
| CCc1ccc(-c2ccc(C(=O)O)cc2)nc1 | – | inactive: 8.49% |
